Experimental data as given in the supplement of paper PMC4166925.
± gives the standard deviation of the averaged measurements. The full ranking holds about 33,000 sequences; the median of “E-score (dimensionless, -0.5 to 0.5)” is about -0.046, and the highest 2% start at about 0.36. The list shows a part of the results.

Test system: T1, SpTbr T-box DNA-binding domain (GST fusion)
T1 sequence: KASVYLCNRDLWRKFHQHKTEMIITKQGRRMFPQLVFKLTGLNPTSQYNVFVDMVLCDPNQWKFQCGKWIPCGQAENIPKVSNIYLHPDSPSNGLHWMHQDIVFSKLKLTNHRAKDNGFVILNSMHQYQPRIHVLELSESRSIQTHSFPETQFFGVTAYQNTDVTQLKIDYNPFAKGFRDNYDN
Experiment: PBM E-score of 8-mer (E-score (dimensionless, -0.5 to 0.5)); Tbr is Tbrain of the sea star Patiria miniata (Pm) or the sea urchin Strongylocentrotus purpuratus (Sp); higher = stronger binding preference; most listed sequences are background and not binding sites
Settings: the construct has about 5 more residues each side
How it was run: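 Universal Agilent oligonucleotide arrays, made double-stranded by primer extension, were incubated with 200 nM GST-fused Tbr T-box DNA-binding domain in PBS (pH 7.5). The protein was expressed in BL21 E. coli at 20 °C and purified by glutathione affinity chromatography. After scanning and quantification, the Universal PBM Analysis Suite assigned an enrichment E-score to each ungapped 8-mer, averaged over duplicate arrays.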

Sequence | PBM E-score of 8-mer
CAGACAGG | -0.0657 ± 0.12
GGCGATCA | 0.0266 ± 0.025
AGATTGGA | -0.111 ± 0.024
CCTATACC | -0.253 ± 0.0033
GAAGATGC | -0.189 ± 0.027
ACGCGGTG | 0.169 ± 0.074
AATACAAA | -0.191 ± 0.039
CCGATATC | 0.0737 ± 0.065
AAGGGCTG | -0.183 ± 0.042
AATTGCCA | 0.162 ± 0.044
CCATAGCG | -0.0419 ± 0.018
ATTGTCCG | -0.22 ± 0.019
AACACCTC | 0.481 ± 0.0063
CGCATCGA | 0.0384 ± 0.039
TATCACCA | 0.154 ± 0.037
AGCCAGCT | -0.0946 ± 0.078
GGTACAAA | -0.143 ± 0.049
CTCGATGA | -0.0664 ± 0.017
CTCGCCCA | 0.0556 ± 0.083
TAAAGCAA | -0.225 ± 0.083
CATTGCAA | -0.0503 ± 0.024
AATGCCGT | -0.122 ± 0.032
AGGACGAA | -0.278 ± 0.022
CATGAGCC | -0.132 ± 0.007
AATCACTA | -0.0801 ± 0.0095

Sequence | PBM E-score of 8-mer
ATTGGGGA | -0.114 ± 0.062
CGCAGTAG | -0.128 ± 0.026
AGCCTTCA | -0.0495 ± 0.025
CTAGTGAC | 0.244 ± 0.03
TGCAGCCA | 0.0121 ± 0.016
AACCACTA | 0.0288 ± 0.049
GCTTAACC | -0.0161 ± 0.078
GGACGGGA | -0.121 ± 0.035
GAGTAAGA | -0.0459 ± 0.014
ATCACGGC | 0.129 ± 0.013
GTTCCTGA | 0.0353 ± 0.081
AGTGACGC | 0.348 ± 0.022
AATATGAT | -0.116 ± 0.016
CGCTTTTA | -0.104 ± 0.029
ACGATCGA | 0.109 ± 0.033
AGTGCAGC | -0.0647 ± 0.09
CTAGAGGC | -0.128 ± 0.021
CCGTCTCG | -0.0513 ± 0.098
GTGCCGGA | 0.206 ± 0.02
AGATGCTA | -0.00214 ± 0.00037
ACACGTGG | 0.299 ± 0.02
AAATGCAT | -0.157 ± 0.043
ATGACAGG | -0.0503 ± 0.027
CTGTCGGA | 0.0257 ± 0.034
GGCATAAC | -0.0272 ± 0.059

Sequence | PBM E-score of 8-mer
AACATGGG | -0.139 ± 0.053
ACAAGTCA | 0.0508 ± 0.05
TACAGTGA | 0.121 ± 0.036
AGCAAGGC | -0.181 ± 0.059
CCAATCGC | 0.164 ± 0.045
TCCAGCCA | -0.0223 ± 0.0094
ACCCTTGG | 0.0586 ± 0.027
TGCAGGCA | -0.0688 ± 0.13
CGCATAAC | -0.013 ± 0.0046
ATTACGTC | -0.202 ± 0.081
AACTTGCT | -0.0229 ± 0.032
TATTCCGA | -0.289 ± 0.044
ACCTGGAG | -0.00128 ± 0.1
TACTGCAA | 0.0535 ± 0.029
CGAAACAC | 0.274 ± 0.011
GACTTCCC | -0.0358 ± 0.13
GCTCGACA | 0.15 ± 0.033
CAGGCCTC | -0.159 ± 0.029
CACGATTC | 0.151 ± 0.033
AACAAGGC | 0.107 ± 0.049
CACGCGGC | 0.165 ± 0.07
CAATACTC | -0.0432 ± 0.015
ATGAGCTC | -0.101 ± 0.039
CGATGGGC | -0.146 ± 0.025
CTCTGTTC | 0.0449 ± 0.0023

Sequence | PBM E-score of 8-mer
CTAGAAAA | -0.139 ± 0.011
GGTAAAAA | -0.0109 ± 0.001
GCTAAAGA | 0.0611 ± 0.0078
TCTGATAA | 0.0597 ± 0.035
TATCCAAA | -0.372 ± 0.0061
AAGGACAC | -0.0247 ± 0.1
ACTGTCGC | 0.284 ± 0.037
GGCTTCGA | -0.093 ± 0.07
CACAAAGA | -0.0119 ± 0.08
ACGTAGAT | -0.143 ± 0.093
AGGACCAC | -0.0512 ± 0.13
GATTCCAC | -0.0308 ± 0.059
GTCCTTTA | -0.246 ± 0.0032
GGCGGGAC | 0.0322 ± 0.0027
ACCTCGTC | 0.191 ± 0.09
CGCGCCAG | 0.186 ± 0.0071
GTGCCTCA | 0.0239 ± 0.0022
GGTGGAAA | 0.151 ± 0.036
GGATAATA | -0.101 ± 0.063
AAAGATTC | -0.0748 ± 0.026
AAGGTGAC | 0.381 ± 0.026
GTCGCAAC | 0.305 ± 0.015
CTAACATA | 0.0303 ± 0.024
GGCACGGA | -0.095 ± 0.035
CCTCTCTA | 0.0363 ± 0.052

Sequence | PBM E-score of 8-mer
CTCTTGTA | -0.106 ± 0.021
GCGCGTGA | 0.344 ± 0.033
AAAACCAC | -0.0027 ± 0.012
GGGTACAC | -0.0838 ± 0.098
CTCCATAC | 0.04 ± 0.081
ACACTAGG | 0.0471 ± 0.0091
GACGCTTA | 0.117 ± 0.033
GAAGCTCC | -0.318 ± 0.042
CCCAAGCA | -0.215 ± 0.049
CATACAGC | -0.176 ± 0.052
GCTCCAGC | -0.22 ± 0.011
AGTCGTAA | -0.0364 ± 0.14
GCCACGGC | -0.0294 ± 0.015
GGGAGCAA | 0.0394 ± 0.053
GCCGGAAA | -0.169 ± 0.063
TAGTCACA | 0.252 ± 0.032
CTAAGGAG | -0.0981 ± 0.052
CCCGTATC | 0.03 ± 0.011
GAGCCTCA | -0.08 ± 0.062
GGTTGCAC | 0.179 ± 0.051
CATCCTAC | -0.0304 ± 0.0046
AGCCACTG | -0.161 ± 0.025
GAATCTAA | -0.0155 ± 0.12
AGCTGGCC | -0.194 ± 0.008
GATAGGGC | -0.0955 ± 0.047

Sequence | PBM E-score of 8-mer
GCGATTTA | 0.267 ± 0.011
AAAGGAAT | -0.187 ± 0.0022
CCCCCGAA | -0.231 ± 0.0096
CAGTAGAC | 0.0341 ± 0.037
GAATTAAC | -0.11 ± 0.015
GGTGGTTA | -0.0313 ± 0.02
CTGGTTGC | 0.0436 ± 0.051
AACACAGA | -0.0143 ± 0.056
CACGGCGC | 0.0862 ± 0.026
ACGGCTAT | -0.184 ± 0.0047
AAAATTGG | -0.204 ± 0.11
GGGCTCGA | -0.0858 ± 0.064
CCGTTGTC | 0.247 ± 0.011
GAGCACGC | -0.103 ± 0.091
AAAGTCGA | -0.0294 ± 0.031
AACACGCT | 0.185 ± 0.073
AATCATAC | -0.157 ± 0.004
ACCGTCTA | -0.0953 ± 0.012
CTGTGTCC | -0.0669 ± 0.021
CTTTTCTC | 0.0829 ± 0.089
ACTCTAGC | 0.0394 ± 0.066
ACTCGGTA | -0.137 ± 0.075
AAGATCAG | -0.263 ± 0.036
TAGCCCTA | -0.243 ± 0.061
CCTATTCG | -0.116 ± 0.11

Sequence | PBM E-score of 8-mer
CTCTGATA | 0.0194 ± 0.0074
CGCGCAGC | 0.00958 ± 0.11
CAAGTCTA | -0.11 ± 0.011
TAGGGCGA | -0.00769 ± 0.086
TAATGAGA | -0.108 ± 0.049
CCTGGTCC | -0.00359 ± 0.025
AGTGATTA | 0.132 ± 0.017
AATCTGAC | -0.0521 ± 0.077
CCCTCCGA | -0.0709 ± 0.059
GGCTCTCA | 0.0783 ± 0.047
CATACTTA | -0.199 ± 0.0057
CGACTATC | -0.00152 ± 0.0027
ATAGAAAT | -0.0474 ± 0.0075
ATCCCCAA | -0.0557 ± 0.04
ACTTACGA | 0.142 ± 0.032
AGGGTGGA | 0.0535 ± 0.0032
ATAGTATG | -0.0917 ± 0.041
ATAACCTC | -0.0208 ± 0.0088
CAGTGTAG | -0.0716 ± 0.012
CACCCGCC | 0.218 ± 0.069
GGAACTAC | 0.0389 ± 0.024
CGGGAAGC | -0.0919 ± 0.059
